From PubChem BioAssay AID493208 (National Center for Advancing Translational Sciences (NCATS), 2011)
Screen size: about 44,000 compounds; about 340 (0.77%) were called active. Inconclusive results (about 5%) are left out. Calls follow the shape of the dose curve; as a rule, active = well fitted inhibition curve with a large enough effect; inconclusive = small, poorly fitted or top-dose-only effect; inactive = flat fitted curve, though single readings scatter. The list shows a part of the results.

Assay: Acumen qHTS Assay for Inhibitors of the mTORC1 Signaling Pathway in MEF (Tsc2-/-, p53-/-) Cells: Sytravon;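 also: plate controls were DMSO for no effect and rapamycin for full effect; nearly all actives have a fitted effect of over 50% in size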
Conditions: phospho-rpS6 immunofluorescence/PI, 24 h; series mostly up to 38.3 µM; activity change, negative = inhibition: at the top concentration
Method in brief: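 Compounds act on Tsc2-/-, p53-/- fibroblasts carrying an empty vector for 24 h before fixation and dual staining for phospho-S6 and DNA (propidium iodide). Values are percentages of cells above a rapamycin-defined pS6/PI threshold.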

Activity change, negative = inhibition, inactive:
Cc1ccc(CNC(=O)CN2C(=O)COc3ccccc32)cc1 12.5%, Cc1ccc(C(=O)c2cn(Cc3c(F)cccc3Cl)c3nc(C)ccc3c2=O)cc1 -15.3%, Cc1noc(-c2ccc(-c3noc(-c4ccccc4)n3)cc2)n1 -0.455%, CCc1ccc(C2CC(=O)c3c([nH]c(C(=O)OCc4ccc(C)cc4)c3C)C2)cc1 (stereo not drawn) -16.6%, CCC(C(=O)NCc1ccc2c(c1)CCN2C(=O)c1ccc(F)cc1)c1ccccc1 (stereo not drawn) 0.548%, CCc1nc2ccc(C(=O)NCCc3ccc(OC)cc3OC)cc2nc1CC 5.67%, O=C(NCCc1ccc(Cl)cc1)c1ccc(CS(=O)(=O)Cc2ccc(Cl)cc2)o1 1.2%, CCOC(=O)c1cc(-c2ccc(C)cc2)n(CCC(=O)Nc2cc(Cl)ccc2C)c1C -3.73%, CCOc1ccc(CCNC(=O)c2cc(Nc3ccc(C)cc3C)nc3ccccc23)cc1OCC 1.9%, CC(=O)c1cc(-c2ccccc2)n(CCC(=O)Nc2nc3c(C)cccc3s2)c1C 0.57%, CC1CCN(S(=O)(=O)c2ccc3[nH]cc(C(=O)NCc4ccc(F)cc4)c(=O)c3c2)CC1 -0.324%, O=C1Cc2cc(S(=O)(=O)N3CCCCC3)cc3c2N1CCC3 -6.25%, Cc1ccc(N2CC(NC(=O)Cc3ccc(F)cc3)CC2=O)cc1 (stereo not drawn) -0.212%, Cc1ccc2c(c1)sc1nc(-c3cc4cc(Cl)ccc4oc3=O)cn12 -4.83%, Cc1cccc(CSc2nc(=O)c3c(n2C)NC(=O)CC3c2cccc(O)c2)c1 (stereo not drawn) -6.82%, COc1cc2[nH]c(=O)n(Cc3ccc(C(=O)NCc4ccc(C)cc4)cc3)c(=O)c2cc1OC 1.07%, COc1ccccc1NC(=O)Cn1c(=O)n(-c2cccc(Cl)c2)c(=O)c2sc3ccccc3c21 1.18%, O=C(Cn1c(=O)n(Cc2ccc(C(=O)NCc3ccc4c(c3)OCO4)cc2)c(=O)c2ccccc21)Nc1cccc(Cl)c1 -0.0529%, CC1=C(C(=O)Nc2cccc(C(F)(F)F)c2)C2(CCCCCC2)OC1=O -15.7%, CC(C)CCn1c(=O)c2sccc2n2c(CCCC(=O)Nc3ccc(C(C)C)cc3)nnc12 4.75%, CCOC(=O)CC(NS(=O)(=O)c1cc(-c2cc(C)no2)ccc1C)c1ccc(C)cc1 (stereo not drawn) -27.7%, COc1ccc(N2CCN(c3nc4ccccc4n4c(C)nnc34)CC2)cc1 2.45%, CCOc1ccc2nc(NC(=O)c3nc(SCc4ccc(C)cc4)ncc3Cl)sc2c1 4.46%, O=C(CC1N=C2c3ccccc3N=C(SCC(=O)Nc3ccccc3F)N2C1=O)NCc1ccc2c(c1)OCO2 (stereo not drawn) 4.06%, Cc1ccc2occ(CC(=O)Nc3c(C(=O)Nc4ccc(Cl)cc4)oc4ccccc34)c2c1 -2.85%, CC(C)COc1ccc(C(=O)N2CCC(c3nc4ccccc4s3)CC2)cc1 -22.6%, Cc1cccc(C)c1NC(=O)CN(C)S(=O)(=O)c1ccc2[nH]c3c(c2c1)CCCC3 -1.03%, CN(C(=O)CSc1nc2ccccc2[nH]1)c1ccc(F)cc1 -0.332%, Cc1ccc(CSc2nncn3c2cc2sccc23)cc1 -2.59%, COc1ccc(OC)c(S(=O)(=O)NCc2ccc3c(c2)CCN3C(=O)c2cccc(C)c2)c1 -15.5%, Cc1cccc(N2C(=O)N(Cc3ccc(C(C)(C)C)cc3)c3ccccc3S2(=O)=O)c1 -2.53%, Cc1ccc(CSCCNC(=O)CN(c2cccc(C)c2C)S(=O)(=O)c2ccccc2)cc1 -5.73%, O=C(NCc1ccc(Cl)cc1)c1cnc(N2CCOCC2)c2ccccc12 -1.2%, COc1ccccc1NC(=O)C1=C(C)Nc2nc(SCC(=O)c3ccc(C)cc3)nn2C1c1ccc(F)cc1 (stereo not drawn) -1.21%, CCOC(=O)c1c(NC(=O)C(C)Sc2cn(CCNC(=O)c3ccc(OC)cc3)c3ccccc23)sc2c1CCC2 (stereo not drawn) -1.17%, COc1ccc(CNC(=O)c2ccc3c(c2)CCN3S(=O)(=O)c2ccccc2)cc1 -7.43%, CC1CCCN(S(=O)(=O)c2cc(C(=O)NCCc3ccccc3)n(C)c2)C1 (stereo not drawn) -6.09%, Cc1ccccc1CNC(=O)c1ccc(Cn2c(SCc3ccccc3)nc3cccnc32)cc1 -8.86%, Cc1ccc(-c2nc(CNC(=O)NC3CCCCC3)c(C)o2)cc1 0%, COc1ccc(CNc2nc(-c3ccco3)nn2C(=O)c2ccccc2C)cc1 1.37%, Cc1ccc(Cl)cc1NC(=O)c1ccc2nc(CCc3ccccc3)oc2c1 -5.93%, CC(=O)c1cccc(NC(=O)Nc2cc3c(cc2N2CCCC2)n(C)c(=O)n3C)c1 -0.644%, CCc1ccc(C(=O)Nc2cccc(-c3nc4cc(C(C)C)ccc4o3)c2)cc1 -28.3%, CCn1cc(C(=O)NCc2ccccc2Cl)c(=O)c2cc(S(=O)(=O)N3CCCCCC3)ccc21 -0.612%, CCN(C(=O)c1cc(S(=O)(=O)N2CCCC2)cn1C)c1ccc(OC)cc1 4.13%, COc1ccc(NC(=O)c2nnn(CC(=O)Nc3cc(C)cc(C)c3)c2N)c(OC)c1 -2.2%, CCCCC(=O)Nc1ccc(C(=O)OCc2cc(=O)n3ccsc3n2)cc1 3.97%, O=S(=O)(c1ccccc1)c1nc(-c2ccco2)oc1SCc1ccc(F)cc1 0.552%, Cc1ccc(NC(=O)Cn2c(=O)cc(-c3ccccc3)c3c(C)nn(C)c32)c(Cl)c1 -5.92%, O=C(CSc1nnc(-c2ccc(Cl)cc2)c(-c2ccc(Cl)cc2)n1)NC1CCCC1 -7.11%, CCOC(=O)c1sc2cccc(F)c2c1S(=O)(=O)Nc1ccccc1F -21.8%, Cc1ccc(C)c(NC(=O)Cn2c(=O)n(CC(=O)NCCc3ccccc3)c(=O)c3ccccc32)c1 2.29%, N#Cc1ccccc1NC(=O)C(=O)NCC(c1cccnc1)N1CCc2ccccc21 (stereo not drawn) 3.28%, O=C(Nc1cc(F)ccc1F)c1cnn2c(C(F)F)cc(-c3ccccc3)nc12 -1.93%, COc1cc(OC)c(NC(=O)C(C)n2nc(-c3ccc(C)cc3)c3c(c2=O)CCCC3)cc1Cl (stereo not drawn) -17.1%, CCOCCCNC(=O)Cn1nc(CC)n2c(cc3c(OC)cccc32)c1=O 0.473%, COC(=O)c1ccc(NC(=O)CSc2nc3cc4ccccc4cc3[nH]2)cc1 -13.5%, CCOC(=O)CC(NC(=O)CCc1c(C)nc2cc(-c3ccccc3)nn2c1C)c1ccc(C)cc1 (stereo not drawn) -6.75%, Cc1ccc(NC(=O)C2CCCN(c3ncnc4onc(C)c34)C2)cc1Cl (stereo not drawn) -9.07%, Cc1ccc(S(=O)(=O)c2nnn3c2nc(N2CCN(c4cccc(C)c4C)CC2)c2ccccc23)cc1C 2.79%, COc1ccccc1-c1cc2nc(C)c(CCC(=O)NC3CCCCC3)c(C)n2n1 0.968%, COc1ccc(CCNC(=O)CSc2nnc(-c3ccc(C)cc3)c(-c3ccc(C)cc3)n2)cc1OC 10.8%, CCCCOc1cccc(C(=O)N(Cc2ccc(Cl)cc2)C2CCS(=O)(=O)C2)c1 (stereo not drawn) -5.94%, Cc1ccc(-c2noc(-c3ccc(NCC4CCCO4)c([N+](=O)[O-])c3)n2)cc1 (stereo not drawn) -9.43%, COc1cccc(C2=NN(S(C)(=O)=O)C(c3cn(-c4ccccc4)nc3-c3cccs3)C2)c1 (stereo not drawn) 2.1%, COc1ccc(CNC(=O)CN(C)c2nn3c(=O)cc(C)nc3s2)cc1 1.92%, CC(=O)c1ccc(N2CCN(C(=O)CS(=O)(=O)c3cccc4nsnc34)CC2)cc1 -16%, CCOc1ccc(C(=O)NCCS(=O)(=O)N2CCN(c3cccc(Cl)c3)CC2)cc1 -11.5%, COc1ccccc1NC(=O)N1CC=C(c2c[nH]c3ccccc23)CC1 -5.14%, Cc1cc(=O)[nH]c2nnc(SCCC(C)C)n12 0.224%, COc1cc(C(=O)Nc2ccccc2OCc2cc(=O)n3cc(C)sc3n2)cc(OC)c1OC -7.33%, Cc1ccc(-c2nnc(Nc3ccc(Cl)cc3)c3ccccc23)cc1S(=O)(=O)NCC1CCCO1 (stereo not drawn) 4.83%, O=C(c1cccc(Cl)c1)N1CCC(c2nc3c(nnn3Cc3ccc(F)cc3F)c(=O)[nH]2)CC1 -0.436%, COc1ccc(C(=O)c2cn(Cc3ccccc3F)c3ccc(F)cc3c2=O)cc1 -6.64%, Cc1cccc(NC(=O)c2oc3ccc(S(=O)(=O)N4CCCCC4)cc3c2C)c1C 5.26%, COc1ccc(-c2[nH]c(-c3ccc(OC)c(OC)c3)nc2SCC(=O)Nc2ccccc2)cc1 -28.8%, Cn1ccc2cc(S(=O)(=O)N3CCCN(C(=O)Nc4ccc(Br)cc4)CC3)ccc21 1.21%, Cc1ccc(Nc2c(-c3ccc(N(C)C)cc3)nc3ccccn23)cc1 -6.62%, CCOc1ccccc1C(=O)N(Cc1ccc(N(C)C)cc1)Cc1ccco1 -3.71%, CCOC(=O)c1ccc2c(c1)N(CC(=O)Nc1cc(F)ccc1F)C(=O)c1ccccc1S2 -0.152%, CCOc1ccc(-c2nc3c(c(CC)nn3-c3ccccc3)c3cc(OC)c(OC)cc23)cc1 5.42%, CC1=C(C(N)=O)C(c2cccc(C)c2)n2nc(-c3ccc(Cl)cc3)nc2N1 (stereo not drawn) -12.5%, CSc1ccccc1NC(=O)C1=CC(c2ccc3c(c2)OCO3)=NS(=O)(=O)N1C -0.821%, COc1ccc(NC(=O)c2c(NC(=O)COc3ccc(Cl)cc3)sc3c2CCCCC3)cc1 13.1%, CCN(C(=O)Cn1nc2c3cc(F)ccc3n(Cc3cccc(C)c3)cc-2c1=O)c1cccc(C)c1 -7.8%, CCOC(=O)CCN(Cc1ccccc1)S(=O)(=O)c1csc(C(N)=O)c1 10.8%, COc1cc(OC)c(NC(=O)N2CCOc3ccc(C)cc32)cc1Cl 9.16%, N#Cc1cc2c(=O)n3ccccc3nc2n(-c2nnc(SCc3ccc(F)cc3)s2)c1=O -3.1%, Cc1ccc(C)c(NC(=O)C(=O)NCC(c2cccnc2)N2CCN(c3ccc(F)cc3)CC2)c1 (stereo not drawn) -8.51%, CC1CN(C(=O)CCC(=O)NCc2cccs2)c2ccccc2O1 (stereo not drawn) 2.34%, COc1cc(NC(=O)C2=C(C)Nc3nnnn3C2c2ccc(SC)cc2)c(OC)cc1Cl (stereo not drawn) -4.69%, Cc1ccc(S(=O)(=O)c2cn(C)c3cc(N4CCN(c5ccccc5)CC4)c(F)cc3c2=O)cc1 -1.08%, CCOC(=O)N1CCc2c(sc3c2c(=O)n(Cc2ccccc2)c(=O)n3Cc2cccc(Cl)c2)C1 -15.5%
